Measured values as given in PMC4336329 (PLoS ONE, 2015).
Screen size: about 310,000 compounds; about 2,200 (0.71%) showed an effect of 50% or more. Effects have a minus sign here. The list shows a part of the results.

Molecular target: human ether-à-go-go-related gene (hERG) potassium channel (human, UniProt Q12809)
Assay: primary screen, population patch clamp on CHO cells stably expressing hERG

Chain of human ether-à-go-go-related gene (hERG) potassium channel (Q12809 whole entry, looked up): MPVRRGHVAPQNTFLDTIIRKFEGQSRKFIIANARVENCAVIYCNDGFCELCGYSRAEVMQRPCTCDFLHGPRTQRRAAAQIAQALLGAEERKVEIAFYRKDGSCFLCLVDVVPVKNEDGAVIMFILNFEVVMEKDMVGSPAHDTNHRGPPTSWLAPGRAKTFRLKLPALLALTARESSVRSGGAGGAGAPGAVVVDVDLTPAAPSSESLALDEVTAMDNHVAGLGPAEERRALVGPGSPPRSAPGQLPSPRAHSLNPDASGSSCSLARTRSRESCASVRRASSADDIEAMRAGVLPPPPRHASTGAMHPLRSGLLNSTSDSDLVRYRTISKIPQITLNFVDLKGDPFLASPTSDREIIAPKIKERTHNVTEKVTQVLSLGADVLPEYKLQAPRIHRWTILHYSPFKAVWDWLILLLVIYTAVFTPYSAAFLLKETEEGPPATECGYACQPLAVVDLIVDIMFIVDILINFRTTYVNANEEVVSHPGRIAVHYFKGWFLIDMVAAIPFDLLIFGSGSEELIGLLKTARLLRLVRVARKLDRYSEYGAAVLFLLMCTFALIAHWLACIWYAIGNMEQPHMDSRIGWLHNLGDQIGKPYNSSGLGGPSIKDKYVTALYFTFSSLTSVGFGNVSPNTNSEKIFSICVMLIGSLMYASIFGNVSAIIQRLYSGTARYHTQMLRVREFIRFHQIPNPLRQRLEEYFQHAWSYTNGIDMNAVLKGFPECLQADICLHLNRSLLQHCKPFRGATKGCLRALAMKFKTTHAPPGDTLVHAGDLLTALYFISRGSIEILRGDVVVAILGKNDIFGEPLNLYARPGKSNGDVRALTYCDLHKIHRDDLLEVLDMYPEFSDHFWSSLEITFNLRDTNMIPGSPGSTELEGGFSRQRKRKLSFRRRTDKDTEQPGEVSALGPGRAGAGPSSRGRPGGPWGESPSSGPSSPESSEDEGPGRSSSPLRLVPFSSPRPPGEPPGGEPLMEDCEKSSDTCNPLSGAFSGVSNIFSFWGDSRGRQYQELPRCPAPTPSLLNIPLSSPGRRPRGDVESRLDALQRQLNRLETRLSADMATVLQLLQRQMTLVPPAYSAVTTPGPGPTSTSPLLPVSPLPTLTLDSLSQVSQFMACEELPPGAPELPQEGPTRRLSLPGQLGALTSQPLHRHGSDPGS

Row | SMILES | hERG current change (%, negative = inhibition) at 1uM [%]
1 | COc1cccc(C(C(=O)NC2CCCC2)N(C(=O)c2csnn2)C2CC2)c1 (stereo not drawn) | 3.71
2 | COc1ccc(CNC(=O)C2CCCN2C(=O)NCc2ccccc2)cc1 (stereo not drawn) | 4.76
3 | Cn1c(=O)n(CCCO)c(=O)c2c1nc1n2CCCN1Cc1ccccc1 | 3.27
4 | CCOC(=O)c1c(NC(C)=O)sc2c(OCCN(CC)CC)c(Br)ccc12 | -7.79
5 | COc1ccc(/C=C/C(=O)Nc2ccccc2)cc1S(=O)(=O)N1CCOCC1 | -14.4
6 | CN1CCN(CC(=O)NC23CC4CC(CC(C4)C2)C3)CC1.Cl | 12.2
7 | COc1cc(NC(=O)C2COc3ccccc3O2)c(OC)cc1Cl (stereo not drawn) | 13.8
8 | Cc1ccc(CNC(=O)COC(=O)COc2ccc(C#N)cc2)cc1 | 8.73
9 | COc1ccc(Cl)cc1NC(=O)CN(C)C(=O)C1CC(=O)N(Cc2ccc(C)cc2)C1 (stereo not drawn) | -18.2
10 | O=C(CN1N=C(c2ccc(Cl)cc2)CCC1=O)NCCN1CCc2ccccc2C1 | -6.5
11 | CC(C)N(C(=O)CN(C#N)c1nc(N(C)C)nc(N(C)C)n1)c1ccccc1 | -6.19
12 | CCN(CC)S(=O)(=O)c1ccc(NC(=O)c2cccs2)cc1 | -0.224
13 | NS(=O)(=O)c1ccc(O)c(N2C(=O)c3cccc4c(C(=O)O)ccc(c34)C2=O)c1 | 10.3
14 | CCCCNC(=O)Nc1ccc(C2SCCS2)cc1 | 12.2
15 | COc1cccc(C(=O)Nc2ccc(-n3nncc3C(C)(C)C)cc2)c1 | -0.351
16 | OC(CN1CCCCC1)Cn1c2ccccc2c2ccccc21 (stereo not drawn) | 9.84
17 | COCCOC(=O)c1c(C)oc2ccc(OCC=C(C)C)cc12 | 13.8
18 | COC(=O)c1ccccc1NC(=O)C1CC(=O)N(c2ccc(OC)cc2)C1 (stereo not drawn) | 0.656
19 | CC(=O)Oc1ccc(/C=N/NC(=O)c2ccc(N(C)S(=O)(=O)c3ccccc3)cc2)cc1 | 13.4
20 | CCc1ccc(C(=O)NC(=S)Nc2ccccc2N2CCOCC2)cc1 | 9.94
21 | CCc1ccccc1NC(=O)c1cc2sccc2n1C | 1.09
22 | Brc1ccc2[nH]c3c(c2c1)CCC3 | 15.8
23 | Cc1cccc(CN2CCCC(C(=O)Nc3ccccc3Oc3cccnc3)C2)c1 (stereo not drawn) | -0.213

Row | SMILES | hERG current change (%, negative = inhibition) at 1uM [%]
24 | CCCCNC(=O)C(Sc1ccccc1)c1ccccc1 (stereo not drawn) | 12.2
25 | COc1ccc(/C(N)=N/OC(=O)Cc2ccccc2OC)cc1 | 12.9
26 | COc1ccc(NC(=O)C2CCN(S(=O)(=O)c3ccc4c(c3)CC(C)N4C(C)=O)CC2)cc1OC (stereo not drawn) | 14.6
27 | COc1ccccc1NC(=O)CN1CCN(CC(=O)Nc2ccc(OC)c(OC)c2)CC1 | 12
28 | Cc1ccc(Cn2nnc3c(=O)n(CC(=O)N4CCCc5ccccc54)cnc32)cc1 | 7.05
29 | Cc1cc(NC(=O)NCc2ccccc2)c(=O)n(Cc2ccccc2F)c1 | 7.05
30 | CCn1c(=O)c([N+](=O)[O-])c(NCCc2ccccc2)c2ccccc21 | 15.1
31 | COc1cc(C(=O)N/N=C/c2ccc(OC(=O)c3ccccc3)c(OC)c2)ccc1O | 14.9
32 | C#CCNC(=O)C1=C[C@@H](c2ccc(Br)cc2)[C@H](CCCO)[C@@H](OCC)O1 | 4.79
33 | Cc1ccc(Cl)c2sc(NC(=O)C3=COCCO3)nc12 | 13.6
34 | O=CNC1CCCc2c1[nH]c1ccc(Cl)cc21 (stereo not drawn) | 0.149
35 | O=C(CCN1CCN(S(=O)(=O)c2ccc(Cl)cc2)CC1)Nc1ccc(F)cc1 | -5.27
36 | Cc1cc2ncn(CC(O)COC3CCCCC3)c2cc1C (stereo not drawn) | 1.09
37 | Cc1ccc(CN2CC(C(=O)OCc3ccccc3Cl)CC2=O)cc1 (stereo not drawn) | 13.3
38 | CCS(=O)(=O)N1CCN(c2ccc(C(=O)NC34CC5CC(CC(C5)C3)C4)cc2[N+](=O)[O-])CC1 | 13.5
39 | COc1cc(NC(=O)C2C3CCC(O3)C2C(=O)O)cc(OC)c1 (stereo not drawn) | 20.4
40 | Cc1cccn2cc(-c3ccc4c(c3)NC(=O)CO4)nc12 | -9.13
41 | CCc1ccc(S(=O)(=O)/N=C2\C=CC(=O)c3ccccc32)cc1 | 4.67
42 | O=C(Cn1nc(CNc2ccc(Cl)cc2)[n+]2c1CCCCC2)c1ccccc1.[Br-] | 7.42
43 | S=C(NC1CCCCC1)N1CCN(C/C=C/c2ccccc2)CC1 | 3.77
44 | COc1ccc(C(CCNCc2ccc(OC)c(OC)c2)c2ccc(F)cc2)cc1 (stereo not drawn) | -17.3
45 | O=P(NC(c1ccccc1)c1ccccc1)(Oc1ccccc1)Oc1ccccc1 | 1.26
